Molecules are shown by their SMILES. In all, about 50,000 compounds went through this assay and about 800 (1.6%) showed an effect of 50% or more. Some of the results follow.

The target in this experiment is Bcl-2-like protein 10 (Homo sapiens) (UniProt Q9HD36). In words: TR3 peptide-Bcl-B binding displacers, biochemical primary FP assay, phenotype converters (AID 1240).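 Also: 0% = Bcl-B with tracer peptide and DMSO and 100% = tracer peptide lacking Bcl-B.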 The following applies: GST-Bcl-B / FITC-TR3 peptide fluorescence polarization; stronger effect = higher value; compound at 3.75 mg/L.
Sequence of UniProt Q9HD36 (Q9HD36 whole entry, looked up): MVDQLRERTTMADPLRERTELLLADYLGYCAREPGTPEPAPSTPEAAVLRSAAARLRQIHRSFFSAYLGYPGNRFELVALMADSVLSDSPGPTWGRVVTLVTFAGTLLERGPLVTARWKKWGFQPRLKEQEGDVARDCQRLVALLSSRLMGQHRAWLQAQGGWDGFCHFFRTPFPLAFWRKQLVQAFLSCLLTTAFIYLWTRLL
For the compound `CC(C)(C)c1ccc(OCC(=O)Nc2ccc(N3CCOCC3)c(Cl)c2)cc1`, the displacement was -3.1%.
Then `COCCCN1C(=O)/C(=C\c2ccccc2O)C(C(=O)OC)=C1C`, with 9.1%; and `COc1ccc(S(=O)(=O)N(CCc2ccccc2)CC(=O)NCCc2ccccc2)cc1`, with 14.7%.
As for `COc1ccc(N=Nc2c(C)[nH]c3ccccc23)cc1`, the figure is 30.2%; as for `Cc1nc2[nH]onc2c2nccc(=O)c12`, 9.3%; as for `O=c1oc2cc(Oc3ccc(C(F)(F)F)cc3[N+](=O)[O-])ccc2c2c1CCCC2`, -0.6%.
For the compound `Brc1cccc(/C=N\N2CCN(c3ccccc3)CC2)c1`, the displacement is -0.8%.
Then `COc1ccc(/C=C2\C(=O)NC(=O)N(c3ccc(C)cc3)C2=O)cc1C(=O)O`, with 5.1%.
For the compound `COc1ccc(C(=O)N2CCN(C(=O)c3ccccc3F)CC2)cc1OC`, the displacement was -22%.
Then `Cc1c([N+](=O)[O-])c2ccc(O)cc2n1-c1ccc(Cl)cc1`, with 10.3%.
`COc1ccccc1NCN1C(=O)S/C(=C/c2ccc(OC)c(OC)c2)C1=O`: the displacement was determined as 1.6%.
Consider `O=C(O)CN1C(=O)/C(=C2/SC(=Nc3cccc(Cl)c3Cl)NC2=O)c2ccccc21`, for which the displacement is -5.6%.
As for `COc1ccccc1/C=C1/SC(=S)N(CCC(=O)N2c3ccccc3Sc3ccc(Cl)cc32)C1=O`, the figure is -3.4%.
On to `CCc1ccc(-c2cc(C(=O)N3CCN(c4cccc(Cl)c4)CC3)c3ccccc3n2)cc1`, for which the displacement came to 15.2%.
`COc1ccccc1OCCn1cc(/C=C2/C(=O)NC(=O)N(c3ccccc3)C2=O)c2ccccc21`: the displacement was found to be 1.6%.
As for `CCCCc1c(C)nc(N/N=C/c2ccc(OC)c(OC)c2)[nH]c1=O`, the displacement is -8.4%.
Then `COc1ccc(OC)c(NC(=O)c2ccc3c(c2)C(=O)N(c2ccc(Cl)cc2)C3=O)c1`, with 10.9%; and `c1nnc(Sc2nc(N3CCOCC3)nc(N3CCOCC3)n2)n1-c1nc(N2CCOCC2)nc(N2CCOCC2)n1`, with -3.5%; and `COC(=O)C1=C(C)NC2=C(C(=O)c3ccccc32)C1c1ccc(-c2ccccc2C(=O)O)o1` (centres undefined), with 10.7%.
For `CC(=O)NC(=Nc1nc2ccccc2s1)NC(C)=O`, the displacement was determined as 0.8%.
Then `COc1cc(OC)c(OC)cc1CN1CCN(C2C3CC4CC(C3)CC2C4)CC1` (centres undefined), with -6%.
Consider `COC(=O)C1=C(O)/C(=C/c2ccccc2O)N=C1C`, for which the displacement was found to be 17.2%.
Then `O=C(NCc1ccco1)c1ccc(C#Cc2ccccc2)cc1`, with -5.8%; and `O=c1oc(-c2ccc(Cl)c(Cl)c2)nc2cc(Cl)ccc12`, with -1.2%; and `COc1ccc(NC(=O)Nc2nnc(Cc3ccccc3)s2)cc1`, with 0.6%.
As for `O=C(O)/C=C/C(=O)Nc1ccc(N2CCCCC2)cc1`, the figure is 4.7%; as for `O=C(CCc1ccccc1)NCC(=O)N/N=C/C=C/c1ccccc1`, 10.6%; as for `O=P(CO)(Cc1ccccc1)Cc1ccccc1`, 0.4%.
As for `CCOC(=O)C1(P(=O)(c2ccccc2)c2ccccc2)CCOCC1`, the figure is 15.5%.
In the case of `O=C(COc1cccc(Cl)c1)Nc1ccc(OCc2ccccc2)cc1`, the displacement turned out to be 1%.
With `COC(=O)C1=NN(C(=O)C(C)C)C(O)(c2ccccc2)C1` (centres undefined), the displacement was -11.7%.
Then `Cc1sc(-c2c(C#N)c(N)nc3c2CCCCC3)cc1Br`, with -3.7%.
As for `COc1ccc(/C=N/Nc2nc(N3CCCCC3)nc(N3CCCCC3)n2)cc1OC`, the figure is -0.1%.
Then `O=C(c1ccccc1Br)N1CCN(c2c(Cl)cccc2[N+](=O)[O-])CC1`, with 6.4%.
Take `Cc1cc(OCC(=O)Nc2ccc(Cl)cc2C)ccc1Br`: the displacement was determined as 8.7%.
On to `COc1ccc(CCNC(=O)c2ccc(CN(c3ccccc3)S(C)(=O)=O)cc2)cc1OC`, for which the displacement is 1.6%.
As to `CCC(C)Oc1nc2ccccc2nc1NS(=O)(=O)c1ccccc1` (centres undefined), the displacement turned out to be 20.4%.
As for `Cc1ccc(-c2ccc(OCC(=O)Nc3ccc4c(c3)OCCO4)cc2)cc1`, the figure is -3.4%.
Then `COc1ccc(C2NN=C(c3ccccc3)S2)c2ccccc12` (centres undefined), with -4.2%; and `COc1ccccc1CC(=O)Nc1nccs1`, with 14.6%.
As for `COc1cc(/C=C2\C(=O)NC(=O)N(c3ccc(Br)cc3)C2=O)cc([N+](=O)[O-])c1O`, the figure is -6.3%; as for `COCCCNC(=O)CN(c1ccc(Cl)cc1)S(C)(=O)=O`, 2.8%; as for `O=C(Cc1ccccc1)c1ccc(O)cc1O`, 21%.
Take `C/C(CC(=O)N1CCCCC1)=N\NC(=O)c1cccc(O)c1`: the displacement was -5.1%.
As for `Oc1c(Cl)cc(Cl)cc1/C=N/Nc1ncc(Br)cn1`, the displacement is -8%.
On to `CC(=O)C1=C(O)C(=O)N(c2nc3ccccc3s2)C1c1ccccc1` (centres undefined), for which the displacement is -9.1%.
As for `Cc1ccc(P(=O)(CC(=O)O)c2ccc(C)cc2)cc1`, the figure is 6.9%.
With `CC(=O)N1CCN(c2ccc(NC(=O)c3cccc([N+](=O)[O-])c3)cc2)CC1`, the displacement came to 5.3%.
Then `CCOC(=O)c1sc(-n2nc(C)cc2C)nc1C`, with -8.5%.
As for `CCCCOc1ccc(C(=O)NCCOc2ccc(C)c(C)c2)cc1`, the figure is 8.1%; as for `COc1cccc(NC(=O)c2cc([N+](=O)[O-])ccc2Br)c1`, 0.9%; as for `COc1ccc2ccccc2c1/C=C1\SC(=S)N(CC(=O)O)C1=O`, 9.6%.
Take `Cc1ccc(C2CC(C(F)(F)F)n3nc(C(=O)N4CCN(c5ccc(F)cc5)CC4)cc3N2)cc1` (centres undefined): the displacement was determined as 6.2%.
As for `NC(=O)C1CCN(C(=O)c2cccc(Br)c2)CC1`, the figure is 2.7%.
Then `Cc1nnc(C)n1/N=C/c1ccc(O)cc1O`, with 17.9%.
Then `O=C(Nc1cccc2ccccc12)C(O)(c1ccccc1)c1ccccc1`, with 15.1%; and `CC(=O)NN1C(=O)/C(=C/c2cc3c(cc2[N+](=O)[O-])OCO3)SC1=S`, with 12.3%; and `COc1ccc(Cl)cc1NC(=O)Cn1nc([N+](=O)[O-])cc1C`, with 9.1%.
In the case of `COc1cc(/C=C(\NC(=O)c2cc(OC)c(OC)c(OC)c2)C(=O)NC(C(=O)O)c2ccccc2)cc(OC)c1OC` (centres undefined), the displacement is -0.7%.
Then `CCCCCC(=C/c1ccccc1)/C=N/NC(N)=O`, with -2.8%.
As for `CCCCC(=O)Nc1nnc(Cc2ccc(Cl)cc2Cl)s1`, the figure is -0.2%; as for `COc1cc(/C=c2\sc3nc4cc(C)c(C)cc4n3c2=O)ccc1OCc1ccc(C)cc1`, 0.9%.
As for `O=[N+]([O-])c1ccc(Nc2nc(OCC(F)(F)C(F)F)nc(OCC(F)(F)C(F)F)n2)cc1`, the figure is 12.4%.
In the case of `CC(=O)NC12CC3CC(CC(O)(C3)C1)C2`, the displacement is -3.3%.
As for `Cc1ccc(C=Nc2ccc(-c3ccc([N+](=O)[O-])cc3)cc2)s1`, the figure is 8.9%; as for `O=C(/C=C/c1ccccc1)C1=C(O)C(=O)N(c2ccccc2)C1c1ccccc1F` (centres undefined), 2%; as for `CCOC(=O)c1c(NC(=O)CCc2ccccc2)sc(C(=O)Nc2cc(C(F)(F)F)ccc2Cl)c1C`, 9%.
Turning to `COc1c(I)cc(I)cc1C1NC(=O)c2c(sc3c2CCCC3)N1` (centres undefined), the displacement was 2%.
Then `O=C(Nc1ccc2oc(-c3ccccc3)nc2c1)c1ccc2c(c1)OCCO2`, with 9.6%; and `Cc1ccc(OCC(=O)NNC(=O)c2ccco2)c(C)c1`, with 30%; and `O=C(O)c1cccc2c1-c1ccccc1/C2=N\O`, with 2%.
As for `Cc1ccnc(NC(=O)c2cc(-c3ccc(Cl)s3)nc3ccccc23)c1`, the figure is -8.7%.
As for `Cc1c(C(=O)OC(C)C)sc(NC(=O)/C=C/c2ccco2)c1C(N)=O`, the figure is 10%.
For `COc1ccccc1N1CCN(/N=C\c2ccccn2)CC1`, the displacement was -3.2%.
Then `CCCN(CCC)C(=O)c1ccc(Cl)cc1`, with -0.6%.
Consider `CCOC(=O)C1=C(O)/C(=C/c2ccc(Br)cc2)SC1=Nc1cccc(Cl)c1`, for which the displacement was -0.3%.
As for `O=C(O)CCCC(=O)Nc1ccc(CC(=O)O)cc1`, the figure is 0%; as for `CCOc1ccc(N2C(=O)NC(=O)/C(=C\c3ccc(OCC(=O)O)c(OC)c3)C2=O)cc1`, 12%; as for `CCOc1cc(C2Nc3cc(C)c(C)cc3NC3=C2C(=O)CC(C)(C)C3)cc([N+](=O)[O-])c1O` (centres undefined), 1.6%.
Then `O=C(Nc1c(F)c(F)c(F)c(F)c1F)c1cccc(F)c1`, with 5.3%; and `Cc1ccc(C(=O)Nc2ccccc2C(=O)N2CC(C)OC(C)C2)cc1` (centres undefined), with 3.9%.
Then `Cc1ccc(-c2nnc(-c3ccc4c(c3)OCO4)o2)cc1C`, with -8.2%; and `Cc1ccccc1NC(=O)C(=O)NCC(C)C`, with 11.7%; and `COc1ccccc1NC(=O)c1cc(-c2ccc(C)cc2C)nc2ccccc12`, with -8.6%.
Regarding `COc1ccc(N=Cc2cccs2)cc1`, the displacement is -8.4%.
On to `O=C(O/N=C(/c1ccncc1)c1ccc([N+](=O)[O-])cc1)c1cccc(Br)c1`, for which the displacement was -5.7%.
Then `COc1ccc(C(=O)N2CCCCCC2)cc1`, with -5.3%.
As for `CC(N=Cc1ccccc1O)C12CC3CC(CC(O)(C3)C1)C2` (centres undefined), the figure is 3.2%.
`CC(=O)Nc1nonc1-c1nc2ccccc2n1Cc1ccc([N+](=O)[O-])cc1`: the displacement was 8.1%.
Then `CCOc1cc(/C=C2\Sc3ccccc3C2=O)ccc1OC`, with 0.2%; and `CC(C)(C)NC(=O)CN(c1ccc(Cl)cc1)S(C)(=O)=O`, with 12.2%.
As for `CC(C)(C)C(=O)NNC(=O)c1cc(Cl)ccc1O`, the figure is -15.8%.
Regarding `Cc1ccccc1CNC(=O)CSc1ccc(Cl)cc1`, the displacement was found to be 1.9%.
Then `Cc1cccc(C(=O)NC(NC(=O)c2cccc(C)c2)c2cccc([N+](=O)[O-])c2)c1`, with 13.1%; and `O=C1CC(N2CCN(Cc3ccccc3)CC2)C(=O)N1c1cccc(Cl)c1` (centres undefined), with -2.9%.
Then `CCCCOc1ccc(/C=N/Nc2cc(OC)ncn2)cc1`, with -8.4%; and `COC(=O)c1ccccc1NC(=O)c1cnccn1`, with 4.3%; and `O=c1oc(-c2ccccc2)nc2sc3c(c12)CCCC3`, with 11.4%.
Then `CC(=O)N/N=C/c1cc(C)n(-c2ccc(Cl)cc2Cl)c1C`, with -7.1%; and `Cn1c(COc2nnc(-c3ccccc3)c3ccccc23)nc2ccccc21`, with 13.9%.
As for `Cc1cc(C)n(C(=O)COc2ccc(Br)cc2)n1`, the displacement came out at 1.2%.
Regarding `COc1ccc(Nc2nnc(-c3ccc(C(=O)NCCO)cc3)c3ccccc23)cc1`, the displacement is 8.1%.
Then `CCOC(=O)CSc1nnc(-c2cccc(Br)c2)o1`, with 13.1%; and `CCC(=O)Nc1nc(C)c(-c2csc(Nc3ccc(N(C)C)cc3)n2)s1`, with 10.1%; and `CC(=O)Oc1c(-c2ccc(Cl)cc2)c2nc3ccccc3nc2c2ccccc12`, with -1.4%.
As for `COc1ccc(CN2CCN(Cc3cccc([N+](=O)[O-])c3)CC2)c(OC)c1`, the figure is -10.4%.
As for `C=CCOc1ccc(/C=C2\SC(N)=NC2=O)cc1OC`, the figure is 7.1%; as for `NC(=O)C1(S(=O)(=O)c2ccccc2)CCCCC1`, 14.5%; as for `Cc1cc2nc(-c3cccc(NC(=O)c4ccc(Br)o4)c3)oc2cc1C`, 41.3%.

Source of the values: PubChem BioAssay AID1240 (Sanford-Burnham Center for Chemical Genomics, 2008).
